The results in this text go back to PMC4336329 (PLoS ONE, 2015).

Screen size: about 310,000 compounds; about 14,000 (4.5%) showed an effect of 50% or more. The effect is printed as a negative number. Some of the results follow.
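Also: peak tail current of the secondary pulse compared with the same well before compound.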

The target in this assay is human ether-à-go-go-related gene (hERG) potassium channel (human, UniProt Q12809). In words: primary screen, population patch clamp on CHO cells stably expressing hERG.
Sequence of human ether-à-go-go-related gene (hERG) potassium channel (Q12809 whole entry, looked up): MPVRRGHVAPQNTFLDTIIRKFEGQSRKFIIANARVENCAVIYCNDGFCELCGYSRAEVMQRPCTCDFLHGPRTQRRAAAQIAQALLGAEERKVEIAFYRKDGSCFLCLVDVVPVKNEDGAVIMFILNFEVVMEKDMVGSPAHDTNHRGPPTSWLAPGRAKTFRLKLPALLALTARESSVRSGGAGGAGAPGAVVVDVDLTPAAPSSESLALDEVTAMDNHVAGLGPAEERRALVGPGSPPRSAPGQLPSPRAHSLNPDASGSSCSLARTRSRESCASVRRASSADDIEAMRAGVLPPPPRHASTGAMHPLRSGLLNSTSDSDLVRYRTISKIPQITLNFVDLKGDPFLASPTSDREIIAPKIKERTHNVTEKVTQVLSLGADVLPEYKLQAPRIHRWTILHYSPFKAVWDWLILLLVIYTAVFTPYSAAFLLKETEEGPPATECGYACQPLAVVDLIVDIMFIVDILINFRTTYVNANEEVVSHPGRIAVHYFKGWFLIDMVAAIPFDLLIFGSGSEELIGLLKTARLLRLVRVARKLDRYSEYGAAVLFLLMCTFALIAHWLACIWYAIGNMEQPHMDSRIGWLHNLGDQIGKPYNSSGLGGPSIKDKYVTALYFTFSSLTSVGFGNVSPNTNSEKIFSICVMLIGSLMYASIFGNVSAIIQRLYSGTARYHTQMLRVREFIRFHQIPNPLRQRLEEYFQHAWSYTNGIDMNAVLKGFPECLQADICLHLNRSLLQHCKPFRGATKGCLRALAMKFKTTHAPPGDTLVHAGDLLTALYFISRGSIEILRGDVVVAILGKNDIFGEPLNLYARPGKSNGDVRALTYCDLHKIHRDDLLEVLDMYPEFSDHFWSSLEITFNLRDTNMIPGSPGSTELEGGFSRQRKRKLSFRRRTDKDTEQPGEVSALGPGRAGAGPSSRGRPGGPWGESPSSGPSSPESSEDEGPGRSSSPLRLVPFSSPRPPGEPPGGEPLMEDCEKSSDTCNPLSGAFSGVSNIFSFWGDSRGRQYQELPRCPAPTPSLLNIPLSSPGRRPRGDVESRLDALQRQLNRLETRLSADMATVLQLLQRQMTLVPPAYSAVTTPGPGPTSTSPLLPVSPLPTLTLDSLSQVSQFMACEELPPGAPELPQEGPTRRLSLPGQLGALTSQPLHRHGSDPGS
For `CCCCn1c(N)c(N(CC(C)C)C(=O)CCNC(=O)c2ccc(Cl)cc2)c(=O)[nH]c1=O`, the “hERG current change (%, negative = inhibition) at 10uM” value was -6.38%.

As to `COc1cc(Cl)ccc1OCc1cc(C(=O)N2CCN(c3ccccn3)CC2)no1`, the “hERG current change (%, negative = inhibition) at 10uM” value is recorded as -20.3%.

On to `COc1ccc(/C=C2/S/C(=N/N=C3\CC4CCC3(C)C4(C)C)NC2=O)cc1` (stereo not drawn), for which the “hERG current change (%, negative = inhibition) at 10uM” value is on record as 15.6%.

On to `Cc1nn(-c2ccccc2)c(C)c1NC(=O)COC(=O)CCc1ccccc1`, for which the “hERG current change (%, negative = inhibition) at 10uM” value is -10.2%.

For the compound `CCC(=O)Nc1ccc(C(=O)n2nc(C)cc2C)cc1`, the “hERG current change (%, negative = inhibition) at 10uM” value is -0.911%.

For the compound `Cc1cc(NCCCN2CCOCC2)n2nc(C)c(-c3ccccc3)c2n1`, the “hERG current change (%, negative = inhibition) at 10uM” value was -14.6%.

As to `Cc1ccc(C(=O)Nc2cccc(C(=O)N3CCN(C)CC3)c2)cc1`, the “hERG current change (%, negative = inhibition) at 10uM” value is -4.65%.

Take `O=C(OC(C(=O)NCc1cccs1)c1ccccc1F)c1ccco1` (stereo not drawn): the “hERG current change (%, negative = inhibition) at 10uM” value stood at 20.5%.

For `CCOc1ccc(NC(=O)CN(C)C(=O)CCCc2c[nH]c3ccccc23)cc1OCC`, the “hERG current change (%, negative = inhibition) at 10uM” value is recorded as -3.25%.

With `O=C(O)c1ccc(CSc2nnnn2-c2ccc(F)cc2)cc1`, the “hERG current change (%, negative = inhibition) at 10uM” value is -9.84%.

`CCN(CC(=O)Nc1cccc(S(=O)(=O)N(C)c2ccccc2)c1)Cc1cccs1`: the “hERG current change (%, negative = inhibition) at 10uM” value is recorded as -29.1%.

On to `Cc1cccc2[nH]c3c(N4CC=C(c5ccc(F)cc5)CC4)ncnc3c12`, for which the “hERG current change (%, negative = inhibition) at 10uM” value was determined as 3.01%.

`COC(=O)c1cc(COc2ccc3oc(C)c(C(=O)OC(C)C)c3c2)c(C)o1`: the “hERG current change (%, negative = inhibition) at 10uM” value worked out at 15.6%.

Consider `O=C(Nc1ccc(N2CCN(C(=O)c3ccccc3)CC2)c(Cl)c1)c1ccc(Br)o1`, for which the “hERG current change (%, negative = inhibition) at 10uM” value is recorded as -58.2%.

As for `Cc1c(Br)c([N+](=O)[O-])nn1CC(=O)Nc1cccc2nonc12`, the “hERG current change (%, negative = inhibition) at 10uM” value turned out to be 28.3%.

As to `CN1CCN(c2nc3c(c(=O)n(C)c(=O)n3C)n2CC(=O)C23CC4CC(CC(C4)C2)C3)CC1`, the “hERG current change (%, negative = inhibition) at 10uM” value was -20.8%.

`COc1ccc(C(=O)N2C(=O)c3ccc(N)cc3C2=O)cc1`: the “hERG current change (%, negative = inhibition) at 10uM” value was 3.41%.

With `CCCCCCCCCCNC(=O)C(=O)Nc1ccccn1`, the “hERG current change (%, negative = inhibition) at 10uM” value was determined as 17.9%.

`COc1ccc(N2CC(O)=C(c3nc(-c4ccc(Br)cc4)cs3)C2=N)cc1`: the “hERG current change (%, negative = inhibition) at 10uM” value was determined as 33.3%.

Consider `O=C(NCCc1nc2ccccc2[nH]1)/C(=C/c1ccc2c(c1)OCO2)NC(=O)c1ccccc1Cl`, for which the “hERG current change (%, negative = inhibition) at 10uM” value is -80.6%.

`CCC1(CC)C(=O)NC(=O)NC1=NCCc1c[nH]c2ccccc12`: the “hERG current change (%, negative = inhibition) at 10uM” value was determined as 19.1%.

With `Cc1ccccc1Nc1c(-c2ccncc2)nc2ccc(Cl)cn12`, the “hERG current change (%, negative = inhibition) at 10uM” value is -6.83%.

Consider `c1ccc2c(c1)CC1(CCCC1)n1nnnc1-2`, for which the “hERG current change (%, negative = inhibition) at 10uM” value is -19.4%.

For the compound `CCOc1ccc(C2CC(=O)NC3=C2C(=O)CCC3)cc1Cl` (stereo not drawn), the “hERG current change (%, negative = inhibition) at 10uM” value is on record as -19.3%.

On to `CC(NC(=O)C1CC1)C(c1cccs1)N1CCOCC1` (stereo not drawn), for which the “hERG current change (%, negative = inhibition) at 10uM” value is listed as -0.309%.

On to `COc1ccc([C@@H]2Sc3ccccc3NC(=O)[C@@H]2O)cc1`, for which the “hERG current change (%, negative = inhibition) at 10uM” value was 2.98%.

For `Cc1cc(C(=O)COC(=O)C2CC2)c(C)n1-c1ccc(F)cc1`, the “hERG current change (%, negative = inhibition) at 10uM” value was 1.28%.

Consider `COc1ccc(C(C[N+](=O)[O-])c2c(C)cc3ccccn23)c(OC)c1` (stereo not drawn), for which the “hERG current change (%, negative = inhibition) at 10uM” value amounted to 26.6%.

For `O=C(O)CCC(NC(=S)Nc1ccccc1)C(=O)O` (stereo not drawn), the “hERG current change (%, negative = inhibition) at 10uM” value is 12.8%.

As for `CCn1nc(C(=O)OCC(=O)N(CCC#N)c2ccccc2)c2ccccc2c1=O`, the “hERG current change (%, negative = inhibition) at 10uM” value is recorded as -30.2%.

As for `CC1CCCN(CCOCCSc2ccccc2)C1.O=C(O)C(=O)O` (stereo not drawn), the “hERG current change (%, negative = inhibition) at 10uM” value is -34.5%.

In the case of `CCCCOc1cccc(C(=O)Nc2ccc(NC(=O)c3cccs3)cc2)c1`, the “hERG current change (%, negative = inhibition) at 10uM” value was determined as 21.3%.

Regarding `CC(=O)NCCc1nc2cc(NC(=O)COc3ccc(C)cc3)ccc2n1C`, the “hERG current change (%, negative = inhibition) at 10uM” value amounted to 14.2%.

Consider `O=C(O)CCC(=O)OC1CC2CCC1C2` (stereo not drawn), for which the “hERG current change (%, negative = inhibition) at 10uM” value was 1.25%.

Consider `Cc1ccc(C)c2c1[nH]c1ccc([N+](=O)[O-])cc12`, for which the “hERG current change (%, negative = inhibition) at 10uM” value is 10.4%.

Take `COc1ccc(NC(=O)C=C(C)C)cc1Cl`: the “hERG current change (%, negative = inhibition) at 10uM” value was -1.62%.

Regarding `Cc1ccc(C(=O)O/N=C(\N)Cc2cccs2)cc1[N+](=O)[O-]`, the “hERG current change (%, negative = inhibition) at 10uM” value was 1.11%.

In the case of `CCCCn1c(O)c(C=NCCCN(CC)CC)c(=O)[nH]c1=O`, the “hERG current change (%, negative = inhibition) at 10uM” value is recorded as -8.91%.

As for `N#CC1=C(SCC(=O)NC23CC4CC(CC(C4)C2)C3)NC(=O)C(C#N)C12CCCCC2` (stereo not drawn), the “hERG current change (%, negative = inhibition) at 10uM” value is 1.3%.

Turning to `Cc1ccc([N+](=O)[O-])cc1S(=O)(=O)Nc1ccc(O)c(Sc2ncn[nH]2)c1`, the “hERG current change (%, negative = inhibition) at 10uM” value is on record as 14.7%.

With `Cc1cc(C)cc(NS(=O)(=O)c2ccc3c(c2)c(=O)n(C)c(=O)n3C)c1`, the “hERG current change (%, negative = inhibition) at 10uM” value is -17.3%.

Take `Cc1ccc(C(=O)Nc2c3c(nn2-c2ccccc2)CS(=O)(=O)C3)cc1C`: the “hERG current change (%, negative = inhibition) at 10uM” value was 5.15%.

For the compound `CC(=O)c1cccc(NC(=O)N2CCCC2C(=O)NCCC(C)C)c1` (stereo not drawn), the “hERG current change (%, negative = inhibition) at 10uM” value is reported as 11.6%.

On to `O=C(Nc1nc(-c2cc(F)ccc2F)cs1)C1=COCCO1`, for which the “hERG current change (%, negative = inhibition) at 10uM” value is listed as -1.01%.

For the compound `O=C(NCc1ccccc1Br)c1ccncc1`, the “hERG current change (%, negative = inhibition) at 10uM” value is 29.5%.

Turning to `O=C(Cc1ccc([N+](=O)[O-])cc1)NCC1CCCO1` (stereo not drawn), the “hERG current change (%, negative = inhibition) at 10uM” value is given as 1.56%.

Regarding `CCC(C)Sc1nc2c(c(=O)[nH]c(=O)n2C)n1CC(O)COc1cccc2ccccc12` (stereo not drawn), the “hERG current change (%, negative = inhibition) at 10uM” value was found to be 12.7%.

Consider `c1csc(-c2nc3nc4ccccc4nc3n2Cc2ccc3c(c2)OCO3)c1`, for which the “hERG current change (%, negative = inhibition) at 10uM” value amounted to 13.8%.

Take `Cc1cc(C=C2C(=O)NC(=O)NC2=O)c(C)n1-c1ccc2c(c1)OCO2`: the “hERG current change (%, negative = inhibition) at 10uM” value was found to be 2.97%.

For `Cc1ccc(OCc2nnc(SCC(=O)CC(=O)Nc3ccccc3)o2)cc1`, the “hERG current change (%, negative = inhibition) at 10uM” value worked out at 10.2%.

In the case of `COCCCNC(=O)c1cc2cc3cc(OC)ccc3nc2o1`, the “hERG current change (%, negative = inhibition) at 10uM” value is listed as -12.9%.

For `CCS(=O)(=O)n1nc(-c2ccccc2)cc1N`, the “hERG current change (%, negative = inhibition) at 10uM” value turned out to be 7.55%.

Regarding `CN(/N=C/c1cc([N+](=O)[O-])ccc1O)c1ccccc1`, the “hERG current change (%, negative = inhibition) at 10uM” value was found to be 15.9%.

Take `COc1ccc(-n2c(-c3ccco3)n[nH]c2=S)cc1`: the “hERG current change (%, negative = inhibition) at 10uM” value was determined as 14.3%.

Turning to `CC(N=C1NS(=O)(=O)c2ccccc21)C(=O)NCCCc1ccccc1` (stereo not drawn), the “hERG current change (%, negative = inhibition) at 10uM” value worked out at 15.9%.

Regarding `Cc1nc(NC(=O)c2ccncc2)sc1C(=O)N(C)C`, the “hERG current change (%, negative = inhibition) at 10uM” value was 25.3%.

With `CCN(c1ccc2c(c1)OCO2)S(=O)(=O)c1cc(Br)cc2c1N(C(C)=O)CC2`, the “hERG current change (%, negative = inhibition) at 10uM” value was -11.1%.
